In the supplement of paper PMC10126150:
Sequences with one replicate were seen in a single cluster, so their values are uncertain.

Tested on: ATP
Test: switch fluorescence ratio, 500 uM ATP over buffer (Cy3 cluster intensity, sum of 5 cycles each) (fold (ratio)); higher = stronger signal-on switching upon ATP binding; sequences stand for … in TCGTCGGCAGCGTCAGATGTGTATAAGAGACAGTTTTTTTTTTTTTTTTTTTTTTTTT…TC
Settings: aptamer strand: ATP DNA aptamer (quencher-CACCTGGGGGAGTATTGCGGAGGAAGG + anchor), 100 nM annealed; ATP concentration: 500 uM; one replicate
Outline: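 Clusters with intensities outside 100-1000 RFU were excluded. The remaining Cy3-labelled switching-strand clusters on a modified Illumina MiSeq flow-cell had been annealed to 100 nM quencher-labelled ATP aptamer and imaged in selection buffer, then after 15 min with 500 uM ATP at 22 °C, for five cycles separated by NaOH stripping and re-annealing. The fluorescence ratio, averaged per switch-domain sequence, is each cluster's summed target-cycle Cy3 intensity over its summed buffer-cycle Cy3 intensity.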
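Also: ATP exposure 15 min at 22 °C before imaging.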

Sequence | switch fluorescence ratio
AGAATTCACA | 1.01
TAGCTTACCT | 1.28
GGTTGAATCC | 0.974
CTTTTTCTAG | 0.96
GGCCCAGGTT | 0.924
ATAAAAAGCG | 1.02
TAGAAATGGA | 0.99
TTAACCCTGA | 1.01
GCGTGCAATC | 1.31
CATTACGGAG | 1.05
AAGATGATGC | 1.02
GCAGGTTTCG | 0.993
CTGATGGGC | 1.06
TAGAGGTAGC | 1.04
TGACGTTAAC | 1.07
ACATGGCCTT | 1.03
ATCGGCTTGA | 1.01
CTTCCGGTTG | 1.28
CTATACTCAT | 1.02
AGCTGGGTTG | 0.966
CACTCTAAGC | 1.09
AACTAGAAGC | 0.997
ATTTCAACAG | 1.03
GCCGAGTATC | 1.03
GGTGGGCGAA | 0.947
GTTCACGACA | 1.04

Sequence | switch fluorescence ratio
ACATCGTAA | 0.995
CTTGTCAGGT | 1.01
AATTATTGCT | 0.963
CTGGTAGTTA | 1.03
GATTCAATCA | 0.983
AAGATGGATG | 0.952
TTGGGTGATT | 0.972
GAGCGGCGAA | 1.02
GTACTGAGTG | 1.06
ACTAGTCGAT | 0.972
GAATTGATGT | 1.01
AGAGGCGCTT | 1.03
TTATTACCAT | 1.03
TTTGTATGT | 1.01
ATGGAACTAC | 1.11
TCCTAGTGGA | 0.946
AGTGGGGTGA | 0.995
TTGTAGTAGT | 1.3
ACAGCCGGCG | 1.06
AAATTGCTCA | 0.958
TTGAGAATGG | 1.03
CTGGGCCGAA | 1.06
ATGCATTATC | 1.27
ACGGCGAGGC | 1.03
TTCGGCTGAA | 0.973
ATCGTCAACC | 1.09

Sequence | switch fluorescence ratio
GGCAGTCGG | 0.974
GGACAGGTC | 0.954
CCTGATTATG | 0.992
AGACACTAGT | 1.03
TCAAAAGTGA | 0.966
TTTTTCGCT | 1.02
TTCACGGAAA | 1.06
AGATTCTTTC | 1.12
TATGGACGGG | 1.01
GTTAGAAACA | 0.959
ATTGCAGCGC | 0.99
CCCGGAATGA | 2.2
TGCGAGTGAT | 1.03
GGCCCAGACA | 0.954
TGTGACTTGA | 1.03
AGGCTGCTAG | 0.994
ATACGAAAAC | 1.09
CATGTCAGGG | 0.987
AGGTGTTTCC | 1.02
TCCGTTCGGT | 1.02
GACAATATGA | 0.964
GCTTTGATTG | 0.99
GGAAGAACCC | 1.03
GCTCCCAAAA | 1.11
GTCGTGTCAG | 1.01
AACCTCAAGG | 0.993

Sequence | switch fluorescence ratio
CTCATCATTG | 1.02
AAGTCATCAG | 1.04
CTACTCGGAG | 1.02
GAGGGAGCT | 1.04
GGCAACCG | 0.977
AGCGGAAAAA | 0.899
ACCGAGTGAG | 1.01
CTGTATAATC | 1.04
TTATTTATGA | 1.01
GTTTACTGTG | 1.04
TATAGTTGAC | 1.03
TATAGGGGAG | 0.994
AATAGAATC | 1.01
TGGGGCACTA | 0.992
CGACAACCTT | 1.84
AGGATCATCT | 0.968
ACTGAGAGA | 0.968
GCTGAGCGCC | 0.954
ACGTTCGCTG | 1.04
GTGTGTTGCC | 0.992
CGATGTTTTA | 0.976
CGAAATAAAG | 0.985
GATCATCCGC | 3.09
GCCGGGTGCA | 0.999
GCTAATTTGT | 1.02
CTCCAATATG | 1.63

Sequence | switch fluorescence ratio
GGCAGCTA | 0.988
CGCGATTTCA | 1.03
CAGTATTTGA | 0.973
ATAGTCAGCA | 0.998
TCTCTGGCTA | 1.51
ATCAGCGGTA | 1.08
ATGGCGCGTG | 0.97
TTCCATGGAG | 0.977
CTCCTGAATT | 1.04
GGGGGACAAT | 1.02
CTTTACAGGT | 1.03
GGCAGTGAGA | 1
GGGTTTCTA | 0.997
CAATGGGAAT | 0.983
ACAGTATAT | 1.12
ATCGATACAT | 1.03
TATAGTTTTC | 1.02
TATGTCTGTT | 1.01
GTGCGAGTGC | 0.973
ACAGGGTGAA | 1.01
ATAAACGAAG | 0.992
ATTTAACACC | 1.12
TTCCAGTGTG | 1.89
GGACGTTGAC | 1.23
CAGACTGCTA | 1.31
CAGTTTGTAT | 0.939

Sequence | switch fluorescence ratio
ATTCAGCCCG | 1.04
TTCCACAGAG | 1.31
TTTACGCCAG | 1.01
AATGACATTA | 0.962
TGGATTCATA | 1.21
ATACCGATTA | 1.02
AAAATAAATT | 0.943
CGGGCTTCTC | 1.01
GCGGCCCGGG | 1.07
AGTAACATAA | 1.01
TGAGCCAAGG | 1.06
CGCGAAGGTG | 1.49
CCCCTTGGGC | 1.04
GACTCAACTG | 0.93
ATCGGCTTGT | 0.984
TTTTAACATG | 1
GCTTCGGTGT | 0.959
CTCGTATCGT | 0.99
TAACCGAAT | 0.971
GTAAGTGGCT | 0.98
TTTGACAACC | 1.02
TAGCGACACG | 1.01
TTCTTCATTG | 0.954
ACGAAGTGCA | 1
TTGCTTGGGG | 1.05
TATGGTGATG | 0.986

Sequence | switch fluorescence ratio
GAGTGCCGCC | 1.03
TCAGTCTTCC | 1.53
CGTCTAATCA | 0.983
GCGGGAGGTG | 1.05
AGGATCCCGA | 1.06
AAGTCTTCAA | 0.975
CCCGTAGATA | 1.07
CGAAGTCCGC | 2.04
TATTTACATA | 1.05
TAAAGCAAAG | 1.09
GATACCGGGC | 1
TTGGACGCGT | 1.03
CTTAGGTCTA | 0.992
GCACTGCCGA | 1.09
AATCCGCTTG | 1.16
ATTACAAGGG | 0.958
ACACGGTGTT | 1.03
ACCCGATCAC | 1.23
TGGGCTTCAG | 0.984
TGAAAGTT | 1.02
GGGATATTAT | 0.977
TCGGGAAATG | 1.25
TAAAAAGGTT | 0.952
AGATAGCTAG | 0.987
CGGACAGGTA | 1
TTGAGTTTG | 0.934

Sequence | switch fluorescence ratio
GGTCGGGCCG | 0.998
CGCTAATAAG | 1.18
GTGCTGGAAA | 1.05
GGGAGGGTAC | 1.48
AACCCTGC | 1.04
AGAGTATAAA | 1.08
AACAGTATAA | 1.08
TGAAGAAAAG | 1.04
CACGCCTACT | 1.31
GCATGCTCAG | 1.04
TACGTGGTTC | 0.996
AGTTTCTATG | 1.04
CAGGGTAATA | 1.06
TGTGCGTCCT | 1.08
ATCTCACCTA | 1.05
AAGATTGGGA | 1.03
CTACACTCCC | 1.72
GGATCTTGCC | 1.07
CCCTTGTTAA | 1.26
